Test results as given in the supplement of paper PMC12645437, “Orthogonal IMiD-Degron Pairs Induce Selective Protein Degradation in Cells” (ACS Chemical Biology, 2025).
Some of the results follow.

Biological target: no compound (DMSO)
Assay: log2 fold change of degron read counts, EGFP-low vs EGFP+ sorted cells; higher = lower degron-EGFP level without compound (poor expression or instability)
Conditions: compound: DMSO control; 18 h
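Further: jurkat cells carrying a lentiviral library of mutant zinc finger degrons fused to EGFP plus mCherry, mCherry+ cells FACS sorted, degron abundance counted by next-generation sequencing.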

Sequence | log2 fold change of degron read counts
FCCNQCGRCFTQKGNLLRHIKL | 0.184
LICPICGFHCTQKGNLLRHIKL | 0.619
FKCEICGAMFTQKGNLLRHIKL | -1.94
LQCNQCGFSCTQKGNLLRHIKL | 0.0284
FICPQCGAGFTQKGNLLRHIKL | -1.04
FCCDICGAAFTQKGNLLRHIKL | -1.75
FLCNQCGRVFTQKGNLLRHIKL | 0.197
FQCNVCGANFTQKGNLLRHIKL | -1.29
FYCNQCGHTFTQKGNLLRHIKL | 0.0274
FRCEICGAIFTQKGNLLRHIKL | -0.152
FGCPICGAKFTQKGNLLRHIKL | -0.734
FDCPICGHKFTQKGNLLRHIKL | -1.63
FLCEQCGAEFTQKGNLLRHIKL | -2.9
FWCPICGHAFTQKGNLLRHIKL | 1.47
FFCDICGAQFTQKGNLLRHIKL | 0.175
FFCNVCGAAFTQKGNLLRHIKL | -0.38

Sequence | log2 fold change of degron read counts
FGCDQCGARFTQKGNLLRHIKL | -2.26
FWCEICGASFTQKGNLLRHIKL | -0.679
FYCEICGAQFTQKGNLLRHIKL | -1.63
FLCPQCGATFTQKGNLLRHIKL | -2.16
FGCPICGAYFTQKGNLLRHIKL | 0.464
FTCNICGANFTQKGNLLRHIKL | -0.689
FVCPICGAKFTQKGNLLRHIKL | -0.174
FRCEICGRYFTQKGNLLRHIKL | -0.416
FSCEICGHKFTQKGNLLRHIKL | -0.786
FFCDQCGALFTQKGNLLRHIKL | -0.199
FWCPVCGATFTQKGNLLRHIKL | 0.873
FVCPQCGAFFTQKGNLLRHIKL | 0.521
FWCDQCGACFTQKGNLLRHIKL | -0.243
FDCDVCGAPFTQKGNLLRHIKL | -1.63
FECDVCGALFTQKGNLLRHIKL | -1.86
LGCNQCGFYCTQKGNLLRHIKL | 1.93
